# Measured values as given in PubChem BioAssay (NCATS).
# This list was built around the results that the source calls inconclusive (neither active nor inactive); the mix of calls is not that of the screen. Where a call stands in place of a potency, no number is given. For some assays here: Potencies beside an inconclusive call are fits to weak or partial responses and may not hold up. Activity calls are given as the source filed them. Unless noted, the call rests on the fitted dose curve; in most records, active means well fitted curve in the direction sought with a large enough effect; inconclusive means small, poorly fitted or top-dose-only effect, or another doubt; inactive means no such curve, though single readings can be large; an effect the other way counts as inactive or inconclusive.
# Assays:
# [1] = Primary qHTS for inhibitors of nuclear receptor binding SET domain protein 2 (NSD2) in an isogenic RCH-ACV NSD2 p.E1099K mutant (9B) (AID 1645876); conditions: activity change, negative = viability loss: at 44.9 µM (top of the series) unless noted; further: nearly all actives have a fitted effect of over 70% in size
# [2] = Primary qHTS for inhibitors of nuclear receptor binding SET domain protein 2 (NSD2) in an RCH-ACV wild type WT cells (2C) (AID 1645877); conditions: activity change, negative = cell killing: at 44.9 µM (top of the series) unless noted; further: nearly all actives have a fitted effect of over 70% in size
# [3] = Primary fluorescence-based thiol-reactive (MSTI) qHTS assay for identification of artifact compounds. (AID 1845221);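 further: potency means the concentration at half of the fitted maximal effect; thiol-reactive compounds lower the probe fluorescence signal; nearly all actives have a fitted effect of over 65% in size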
# Summary of the method: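 Curve-fitted percent inhibition (4-parameter Hill) derived from fluorescence, Ex 525/Em 598 nm, scaled with Acetyl-MSTI and MSTI; 1 h incubation at room temperature.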
# CAOV3 = test: Primary qHTS to identify gynecologic anti-cancer compounds using libraries of approved drugs and bioactive compounds (AID 1345084); conditions: Gynecologic cancer cell panel viability, ATPlite luminescence, 48 h; series mostly up to 57.5 µM; further: nearly all actives have a fitted effect of over 55% in size; further: potency means the concentration at half of the fitted maximal effect
# Summary of the method: (§1)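 Cytotoxicity screen measuring ATP content by luciferase luminescence. Each compound is applied at five concentrations for 48 h at 37 C with 5% CO2.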
# SKOV3 = test: as above; conditions: Gynecologic cancer cell panel viability, ATPlite luminescence, 48 h; series mostly up to 57.5 µM
# Summary of the method: as §1
# [4] = target: Luciferin 4-monooxygenase (Photinus pyralis) (UniProt P08659); test: Primary firefly luciferase (FLuc) qHTS assay for identification of artifact compounds. (AID 1845220); further: nearly all actives have a fitted effect of over 60% in size
# Summary of the method: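 In this counter-screen for luciferase artifacts, test compounds met substrate (10 uM each luciferin and ATP) before 10 nM enzyme started the reaction. Light output was measured 5 min later.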
# Tov-21-G = test: Primary qHTS to identify gynecologic anti-cancer compounds using libraries of approved drugs and bioactive compounds (AID 1345084); conditions: Gynecologic cancer cell panel viability, ATPlite luminescence, 48 h; series mostly up to 57.5 µM; further: nearly all actives have a fitted effect of over 55% in size; further: potency means the concentration at half of the fitted maximal effect
# Summary of the method: as §1
# [5] = P-glycoprotein substrates identified in KB-3-1 adenocarcinoma cell line, qHTS therapeutic library screen (AID 1346986); further: nearly all actives have a fitted effect of over 60% in size
# Summary of the method: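 Using luminescence to quantify ATP, parental and P-gp-overexpressing KB cells were compared after 72 h compound titration. KB-8-5-11 was also run with the P-gp inhibitor tariquidar.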
# [6] = tested on: Zika virus NS2B-NS3 protease (linked construct); test: Primary screen NINDS Rhodamine qHTS for Zika virus inhibitors (AID 1347160); further: nearly all actives have a fitted effect of over 55% in size
# Summary of the method: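 Single-chain NS2B-NS3 protease, 25 nM, pH 8.0; compounds preincubated 15 min. Activity: Rhodamine110 release from 1.5 microM substrate over 15 min, room temperature, data fitted to 4-parameter Hill.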
# Tov112D = test: Primary qHTS to identify gynecologic anti-cancer compounds using libraries of approved drugs and bioactive compounds (AID 1345084); conditions: Gynecologic cancer cell panel viability, ATPlite luminescence, 48 h; series mostly up to 57.5 µM; further: nearly all actives have a fitted effect of over 55% in size; further: potency means the concentration at half of the fitted maximal effect
# Summary of the method: as §1
# [7] = target: Luciferin 4-monooxygenase (Photinus pyralis) (UniProt P08659); test: Biochemical firefly luciferase enzyme assay for NPC (AID 624030); further: potency means the concentration at half of the fitted maximal effect; nearly all actives have a fitted effect of over 70% in size
# Summary of the method: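 Counter-screen for direct inhibition of the luciferase enzyme by approved-drug library compounds, run at 10 nM enzyme in 50 mM Tris acetate (final). Luminescence was read within 5 min of enzyme-buffer addition and normalized to PTC124 versus DMSO (0%).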
# [8] = qHTS of pediatric cancer cell lines to identify multiple opportunities for drug repurposing: Primary screen for DAOY cells (AID 1347090); further: nearly all actives have a fitted effect of over 55% in size
# Summary of the method: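 Eight- or eleven-point concentration series, 48 h treatment at 37 degrees C in growth media; readout CellTiter-Glo luminescence. Potency and efficacy were taken from the concentration-response curves.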
# [9] = qHTS of pediatric cancer cell lines to identify multiple opportunities for drug repurposing: Primary screen for NB-EBc1 cells (AID 1347095)
# Summary of the method: (§2)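 Primary screen of approved and investigational compounds on cells in growth media at 37 degrees C, 5% CO2. MIPE set at 11-point and NPC set at 8-point dilutions; viability scored by ATP-based luminescence at 48 hours.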
# [10] = qHTS of pediatric cancer cell lines to identify multiple opportunities for drug repurposing: Primary screen for Rh41 cells (AID 1347108);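 further: luminescence drop marks cytotoxic hits; nearly all actives have a fitted effect of over 70% in size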
# Summary of the method: as §2
# [11] = tested on: Zika virus NS2B-NS3 protease; test: Primary screen GU AMC qHTS for Zika virus inhibitors (AID 1347154)
# Summary of the method: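 Unlinked Zika NS2B hydrophilic domain/NS3 protease domain noncovalent complex (25 nM final) in 10 mM Tris-HCl pH 8.0, 0.01% Tween 20, with AMC peptide substrate. Fluorescence (ex 340, em 450 nm) change over 15 min, room temperature; percent inhibition fitted to 4-parameter Hill equation.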
# [12] = target: Protein phosphatase 1D (Homo sapiens) (UniProt O15297); test: RapidFire Mass Spectrometry qHTS Assay for Modulators of WT P53-Induced Phosphatase 1 (WIP1) (AID 1347424);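 further: amount of dephosphorylated VEPPL-S-QETFS peptide product formed by WIP1; potency means the concentration at half of the fitted maximal effect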
# Summary of the method: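 Mass-spectrometric measurement of dephosphorylated peptide after a 5 min room-temperature reaction of 10 nM WIP1 with 2 uM phosphopeptide, following 1 h compound preincubation in 30 mM MgCl2 buffer.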
# [13] = target: Protein phosphatase 1D (Homo sapiens) (UniProt O15297); test: Rhodamine-PBP qHTS Assay for Modulators of WT P53-Induced Phosphatase 1 (WIP1) (AID 1347425); further: potency means the concentration at half of the fitted maximal effect
# Summary of the method: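 Steps: enzyme with Rh-PBP sensor and compounds, room-temperature incubation of 1 hr, baseline read, addition of VEPPL-pS-QETFS (10 uM final), kinetic fluorescence reads at 525/598 nm. Activity equals final minus baseline signal.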
# [14] = target: Calcium and integrin-binding protein 1 (Homo sapiens) (UniProt Q99828); test: Primary qHTS for Identification of Calcium Integrin Binding Protein 1 (CIB1) Competitor (AID 1508620); further: potency means the concentration at half of the fitted maximal effect
# Summary of the method: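 Fluorescence polarization competition: CIB1-GST (1 uM final) preincubated with compound 15 min at room temperature, then FITC-labeled alphaIIb peptide (100 nM final) added for another 15 min. Polarization read at Ex 480/Em 540.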
# [15] = Primary qHTS for small molecule stabilizers of the endoplasmic reticulum resident proteome: Secreted ER Calcium Modulated Protein (SERCaMP) assay (AID 1508630); conditions: SH-SY5Y GLuc-SERCaMP (Gaussia luciferase released on ER calcium loss) secretion, thapsigargin, luminescence; activity change, negative = inhibition: at 38.4 µM (top of the series) unless noted; further: potency means the concentration at half of the fitted maximal effect
# Summary of the method: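 The SH-SY5Y reporter protocol was run at 3 concentrations up to 38.3 uM (primary) or 11 concentrations (follow-up): 16 h compound, 100 nM thapsigargin for 4 h, then extracellular luciferase luminescence.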
# [16] = A High-Content qHTS Against Drug Library for the Identification of Small Molecules that Inhibit DYT1 Early Onset Primary Dystonia-Associated Cell Pathology (AID 1645839; calls by dose curve; further: potency means the concentration at half of the fitted maximal effect)
# Summary of the method: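 Induced EGFP-delE TorsinA cells are imaged after 48 h of compound treatment. Punctate fusion-protein distribution gives the %pathology value, while nuclei counts flag toxicity. Wild-type EGFP-hTOR1A cells define the normal pattern.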
# [17] = target: Cytochrome P450 2D6 (Homo sapiens) (UniProt P10635); test: Cytochrome P450 family 2 subfamily D member 6 (CYP2D6) small molecule antagonists: luciferase biochemical (cell-free) qHTS assay (AID 1645840; active means well fitted curve in the direction sought with a large enough effect in the repeat runs; inconclusive means weak or mixed curves; inactive means no such curve, though single readings can be large; an effect the other way counts as inactive or inconclusive)
# Summary of the method: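 P450-Glo CYP2D6 system: proluciferin substrate converted by enzyme to luciferin, read by luminescence proportional to activity. Enzyme-substrate mix with compound 10 min at room temperature, then NADPH regeneration 1 h before detection reagent.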
# astro = test: Drug repurposing screens with cells derived from glioblastoma tumor samples (AID 1345199); conditions: viability, ATP luminescence, 48 h; activity, negative = cell killing: at 45.9 µM (top of the series) unless noted; further: potency means the concentration at half of the fitted maximal effect; nearly all actives have a fitted effect of over 40% in size
# Summary of the method: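 Primary testing used CD133+ neurospheres from four GBM patients, seven concentrations, 48 h exposure and ATP-based viability; confirmation added three slower-growing patient lines.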
# Tags describe the fitted curve by direction and shape.
# UniProt O15297, sequence (O15297 whole entry, looked up): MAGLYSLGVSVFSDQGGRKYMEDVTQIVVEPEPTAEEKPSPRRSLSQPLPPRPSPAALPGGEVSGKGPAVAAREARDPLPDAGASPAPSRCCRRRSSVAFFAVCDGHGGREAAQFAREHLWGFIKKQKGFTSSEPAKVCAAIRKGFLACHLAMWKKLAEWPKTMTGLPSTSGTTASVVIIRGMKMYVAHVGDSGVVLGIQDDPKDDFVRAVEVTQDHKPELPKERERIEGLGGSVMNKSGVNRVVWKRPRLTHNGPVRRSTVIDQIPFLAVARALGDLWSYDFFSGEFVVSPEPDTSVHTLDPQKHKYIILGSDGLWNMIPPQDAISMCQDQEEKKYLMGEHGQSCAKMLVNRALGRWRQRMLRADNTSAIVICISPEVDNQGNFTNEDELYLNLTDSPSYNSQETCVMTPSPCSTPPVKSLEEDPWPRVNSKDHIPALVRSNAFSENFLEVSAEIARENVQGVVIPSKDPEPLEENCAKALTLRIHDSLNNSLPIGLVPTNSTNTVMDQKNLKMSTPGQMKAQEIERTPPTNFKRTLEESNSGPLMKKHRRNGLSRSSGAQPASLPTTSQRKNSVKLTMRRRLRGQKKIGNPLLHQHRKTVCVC
# UniProt P08659, sequence (P08659 whole entry, looked up): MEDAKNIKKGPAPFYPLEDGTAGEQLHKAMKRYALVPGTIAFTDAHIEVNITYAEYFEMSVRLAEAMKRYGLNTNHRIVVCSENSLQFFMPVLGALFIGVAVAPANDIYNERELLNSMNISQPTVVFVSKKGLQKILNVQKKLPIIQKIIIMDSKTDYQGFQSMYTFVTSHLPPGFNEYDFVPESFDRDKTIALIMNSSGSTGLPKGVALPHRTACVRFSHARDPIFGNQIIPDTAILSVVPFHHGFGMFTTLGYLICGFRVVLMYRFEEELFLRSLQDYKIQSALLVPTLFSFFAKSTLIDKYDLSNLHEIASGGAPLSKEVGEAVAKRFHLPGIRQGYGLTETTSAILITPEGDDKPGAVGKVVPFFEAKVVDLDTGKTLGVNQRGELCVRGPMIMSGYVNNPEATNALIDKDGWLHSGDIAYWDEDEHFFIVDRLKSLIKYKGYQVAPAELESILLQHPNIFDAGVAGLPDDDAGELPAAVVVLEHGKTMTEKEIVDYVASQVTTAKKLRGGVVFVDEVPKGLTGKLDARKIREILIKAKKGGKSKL
# UniProt Q99828, sequence (Q99828 whole entry, looked up): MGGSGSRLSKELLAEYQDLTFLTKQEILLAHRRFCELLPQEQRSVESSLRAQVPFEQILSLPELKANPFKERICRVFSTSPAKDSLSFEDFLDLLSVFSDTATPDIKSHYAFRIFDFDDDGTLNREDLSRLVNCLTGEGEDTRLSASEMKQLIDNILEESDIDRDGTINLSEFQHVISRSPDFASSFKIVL
# UniProt P10635, sequence (P10635 whole entry, looked up): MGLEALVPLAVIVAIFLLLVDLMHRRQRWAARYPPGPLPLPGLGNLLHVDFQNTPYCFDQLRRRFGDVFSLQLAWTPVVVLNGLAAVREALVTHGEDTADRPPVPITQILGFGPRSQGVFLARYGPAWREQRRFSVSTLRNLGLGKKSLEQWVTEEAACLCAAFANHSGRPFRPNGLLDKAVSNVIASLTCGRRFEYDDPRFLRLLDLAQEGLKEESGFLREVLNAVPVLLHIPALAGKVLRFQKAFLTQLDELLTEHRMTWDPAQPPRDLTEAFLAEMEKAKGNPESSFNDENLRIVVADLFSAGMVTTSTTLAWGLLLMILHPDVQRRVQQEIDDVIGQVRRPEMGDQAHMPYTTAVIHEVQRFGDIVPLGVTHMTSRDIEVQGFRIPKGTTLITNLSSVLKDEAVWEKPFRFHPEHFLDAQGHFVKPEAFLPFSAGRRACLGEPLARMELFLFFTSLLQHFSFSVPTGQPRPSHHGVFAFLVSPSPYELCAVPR
compound,measurement,setting,value
OC[C@H]1O[C@@H](OCCc2ccccc2)[C@H](O[C@@H]2OC[C@](O)(CO)[C@H]2O)[C@@H](O)[C@@H]1O,Potency,[1],inactive
same,Potency,[2],inactive
same,Potency,[3],"inconclusive: 10.3 µM [inhibitor, partial curve]"
same,Potency,CAOV3,inactive
same,Potency,SKOV3,inactive
CC(=O)O[C@@]1(C)C[C@@H](O)[C@]2(O)C=CO[C@@H](O[C@@H]3O[C@H](CO)[C@@H](O)[C@H](O)[C@H]3O)[C@@H]21,Potency,[1],inactive
same,Potency,[2],inactive
same,Potency,[4],inactive
same,Potency,CAOV3,inactive
same,Potency,SKOV3,inactive
CC(=O)c1ccc(O[C@@H]2O[C@H](CO[C@@H]3OC[C@@H](O)[C@H](O)[C@H]3O)[C@@H](O)[C@H](O)[C@H]2O)cc1,Potency,[3],"inconclusive: 7.33 µM [inhibitor, partial curve, poor fit]"
same,Potency,CAOV3,inactive
same,Potency,SKOV3,inactive
O=C(Nc1ccc2[nH]ncc2c1)C1CCC1,Potency,CAOV3,"inconclusive: 1.58 µM [rising, full curve, poor fit]"
same,Potency,Tov-21-G,inactive
CC[C@H](/C=C/[C@@H](C)[C@H]1CC[C@H]2[C@@H]3CC=C4C[C@@H](O)CC[C@]4(C)[C@H]3CC[C@]12C)C(C)C,outcome,[5],inactive [at 5.11 µM]
same,"activity change, negative = inhibition",[6],inactive: 7.22% [at 4.91 µM]
same,outcome,[2],inactive [at 4.96 µM]
same,"activity change, negative = cytotoxicity",CAOV3,inactive: 7.88% [at 6.55 µM]
CN[C@@H]1[C@H](O[C@H]2[C@H](O[C@@H]3[C@@H](O)[C@H](O)[C@@H](N=C(N)N)[C@H](O)[C@H]3N=C(N)N)O[C@@H](C)[C@]2(O)CO)O[C@@H](CO)[C@H](O)[C@H]1O,Potency,[2],inactive
same,Potency,CAOV3,"inconclusive: 0.1 µM [rising, full curve, poor fit]"
same,Potency,Tov112D,inactive
CSc1ccc(/C=C2/C(C)=C(CC(=O)O)c3cc(F)ccc32)cc1,Potency,[7],"inconclusive: 28.7 µM [inhibitor, partial curve]"
same,Potency,[8],inactive
same,Potency,[9],inactive
same,Potency,[10],inactive
same,Potency,[11],"inconclusive: 15.8 µM [inhibitor, partial curve]"
same,Potency,[12],"inconclusive: 31.6 µM [inhibitor, single point]"
same,Potency,[13],"inconclusive: 10 µM [inhibitor, partial curve, poor fit]"
same,Potency,[14],"inconclusive: 79.4 µM [inhibitor, partial curve, poor fit]"
same,Potency,[15],"inconclusive: 31.6 µM [inhibitor, partial curve, poor fit]"
same,Potency,[16],"inconclusive: 35.5 µM [inhibitor, single point]"
same,Potency,[17],"inconclusive: 38.9 µM [inhibitor, single point]"
same,Potency,CAOV3,inactive
same,Potency,astro,"inconclusive: 35.5 µM [inhibitor, single point]"
